Reference: paper PMC12136788
The list shows a part of the results.

T1: UNK ZnF1-3 (human, UniProt Q9C0B0 31-174)
T1 sequence: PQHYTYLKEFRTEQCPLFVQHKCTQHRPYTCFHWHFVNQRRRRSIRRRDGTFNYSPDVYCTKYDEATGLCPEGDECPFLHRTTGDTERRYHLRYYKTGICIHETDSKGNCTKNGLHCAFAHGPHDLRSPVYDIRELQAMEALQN

B1: chr2:48026839:48026840:+_ENSG00000116062_ENST00000540021|hu_hu|hu_hu_hu_mus_False|38_38 (ssRNA)
RNA: GGGAGUUCUACAGUCCGACGAUCAUAGUGAGCCACUAGCGUCCUAAAUCUGGAACAGUGGCGGUCAUCCGAAAACUGGCCGAUGAAAAACUUGCCCAGUGAAGUAUCCACAAAGCAAACACCAUACACACGAGUGUGACCAGACAACAGAGGAUUGAGCAUCA
B2: 74336472_74336592_942_3pUTR_ENSG00000077514_ENST00000263681|human|control|control (ssRNA)
RNA: GGGAGUUCUACAGUCCGACGAUCAACAGGCUCUGCUUUUUUGCUGGAUUUUUUCAGGCCUGCAGGAGUUGCCAGCUUUGGUUCCGUGACAGACACUGUAGGCUGCUCCACUAUUUUUUCUUCUUUCACUGCUUGUUCUGAGUCCAACAGAGGAUUGAGCAUCA
B3: chr4:25749455:25749456:-_ENSG00000091490_ENST00000264868|hu_hu|motif|central (ssRNA)
RNA: GGGAGUUCUACAGUCCGACGAUCGGAAGCACUAGGACCCUAGAAAAAUUCAAGGAGAAAAAUGUAAACCAAUUUACAAAGCGGUUGCCCUCCCUGCAUUUCCAGGCACAAACAAUUUAUUUCAAGGUGCCUUAUAACUGCUAGCAACAGAGGAUUGAGCAUCA
B4: chr14:96997824:96997825:+_ENSG00000090060_ENST00000216277|hu_mus|motif|central (ssRNA)
RNA: GGGAGUUCUACAGUCCGACGAUCGUUUUUAAGCAGACUGUCAUCUCGUAGGUCCAAAUCUUCUGGAAUAGUCUGCAGUGCGGAUCUUGCAAACAAAAUAUCAAUCUCUAUUCCAUCAAAACAGAGUUUGAUAACUGGUACAAACAACAGAGGAUUGAGCAUCA
B5: chr14:66974463:66974464:+_ENSMUSG00000022044_ENSMUST00000074523|mus_hu|mus_mus_mus_hu_False|68_68 (ssRNA)
RNA: GGGAGUUCUACAGUCCGACGAUCUUGUAGGACGACUUAUUCAGGGGAUCGGCCAGGAAGCAGGAGCAGAACAGAGACACCAGCGGGAGCUCCUUCAUCUUCUCUUUGUAGGCAGCAAGGGUCAUGUUUCUGGGAUCUGGUGGCCAACAGAGGAUUGAGCAUCA
B6: 23912569_23912689_5974_CDS_ENSG00000151835_ENST00000382298|human|control|control (ssRNA)
RNA: GGGAGUUCUACAGUCCGACGAUCACACUCUACUGUUUUCUGUGACAACUCAUCUGAUGGCUUUUUUGAUUGGCCAGACUUAGCCAUUUCAAAGAGAGCAGCUGGGUCAUCAUCUGGACCUCUAAAAAGUGGCGACUGUAAAUCCAACAGAGGAUUGAGCAUCA
B7: chr14:53325254:53325255:-_ENSG00000073712_ENST00000341590|hu_mus|motif|central (ssRNA)
RNA: GGGAGUUCUACAGUCCGACGAUCGACCACCUUGCAGUCUACUUCGGUACAGAUGAAGGACAACCGGACCUCAUCUGCAAACUCGGCAGUGACCAUCUUGAUCUCCCAGUUGACAUUCCACUGCUUCAUGUUGCUGAACCGCCACAACAGAGGAUUGAGCAUCA
B8: 120201867_120205416_288_CDS_ENSMUSG00000026374_ENSMUST00000027623|mouse|control|control (ssRNA)
RNA: GGGAGUUCUACAGUCCGACGAUCCACGAACCGCCAAUGCUCAUGAAACCUGUAAUACUGCUCAGCGGGGAACUUGGUCUUCAGGGACGUGAGAUGUGUUUUUACUGUACUGAAAUGUUCUCUCGCUUUCAAGCACCUCUUUGGCAACAGAGGAUUGAGCAUCA
B9: 1054960_1056412_1422_CDS_ENSG00000107937_ENST00000545048|human|control|control (ssRNA)
RNA: GGGAGUUCUACAGUCCGACGAUCGAUUUCUGGUAUCUUAUCAUGUUUUUCAGACAAAUUCAUUAAAUCCCAGUACUUCUGAAGAUCCAAAAUAUAAUCAUCUCCCAUUUCCAGCUCAAGAUCUCGUUCCCUCUUCUUCCUGGACAACAGAGGAUUGAGCAUCA
B10: chr1:76254992:76254993:+_ENSG00000137955_ENST00000319942|hu_hu|FALSE|FALSE (ssRNA)
RNA: GGGAGUUCUACAGUCCGACGAUCCAGCGUAAGAAUCUGGACAGCACUAAGAGUGUAUAAAAGAUGAGGAUCAUGUCCGAUACUAGCACUUAUUCCACCACAUUCAUGUUGGCAAGACUUAAUAAAUGCCAGAAUCUCUUCUCUCAACAGAGGAUUGAGCAUCA
B11: chr17:66526506:66526507:+_ENSG00000108946_ENST00000358598|hu_hu|motif|central (ssRNA)
RNA: GGGAGUUCUACAGUCCGACGAUCGUACUGCUGGAUGUUUCGUUUGAGGAUGUCUGAGCAUGGGCCAAGAACACGUUCAAAUCGGGGUCGGUCCAGCUUAACGCACUUCAAGGGGCCACGAGCAACAACUGUGGCAGCACGAGGCAACAGAGGAUUGAGCAUCA
B12: chr1:186326634:186326635:-_ENSG00000047410_ENST00000367478|hu_hu|motif|central (ssRNA)
RNA: GGGAGUUCUACAGUCCGACGAUCGGCCACUAAGAGACGUUGAUUUUGUUGUUGAAGCUCUUCAAUAUUUCUGUAAGAUACGGGAUGCUGUGAUAUUACCUCAGAUGAACUACUUAUAUCAGCAGAGCUUACUUCCUCAUCACGCAACAGAGGAUUGAGCAUCA
B13: chr9:80412558:80412559:-_ENSG00000156052_ENST00000286548|hu_hu|motif|central (ssRNA)
RNA: GGGAGUUCUACAGUCCGACGAUCGGUGGGGACUCGAACUCUAAGCACAUCUUGUUGCGUAGGCAGGUAGGCAGGGUCAGCGGCGCGGUCCAAGUCAUUAAGAUAGUAUUUGGUAGAGUCAGAUAAUUGAUAUUCUCGUCGUCUCAACAGAGGAUUGAGCAUCA
B14: chr10:126435856:126435857:+_ENSMUSG00000078429_ENSMUST00000105256|mus_mus|FALSE|FALSE (ssRNA)
RNA: GGGAGUUCUACAGUCCGACGAUCAGUGGAAACCCUUACCUGGCCCUUUAUCAAACUGGUCCUGUGUCCAAAGCUCCCCCUAUAAGAGGGACAGGAACGUCAGGCUUUUGAUGCGAAGCCCAAUCAGACACACACUGUGUCCCUCAACAGAGGAUUGAGCAUCA
B15: chr6:75965845:75965846:-_ENSG00000112697_ENST00000230461|hu_hu|motif|central (ssRNA)
RNA: GGGAGUUCUACAGUCCGACGAUCAUUUGCUUUCAUAAUAUAAAAUUAAAUGGUAAUGUCAGCUGUAUUACUACUGUUUCGGUAUUUAUGAUUAAUUACUAGCAGUACAACUCCCAGAAGGAAGGAGAUGGAUCCAACAGCGAUCAACAGAGGAUUGAGCAUCA
B16: chr5:145543945:145543946:-_ENSG00000133706_ENST00000545646|hu_hu|hu_hu_hu_mus_True|48_68 (ssRNA)
RNA: GGGAGUUCUACAGUCCGACGAUCCUGAACGGCCAGUGGUGGGAAAUAAUCAAGCCAGUGCUCUGCUUCAGAAAAUUUCACUAUGUCUUCAUCAGACAGCCCAAGGGAUUUCAUAAUGUCCCACUGGUACUUAGAAGAUCCUGCCAACAGAGGAUUGAGCAUCA
B17: chr11:2966284:2966285:-_ENSG00000205531_ENST00000380542|hu_hu|FALSE|FALSE (ssRNA)
RNA: GGGAGUUCUACAGUCCGACGAUCAGGUGACCCGCAGCAGCUCUCACCUGGGCUGGUGUGUCACAACCCUGACCCACCCCUAAAAAAAAAAAAAAAUCAAGAAGCAACAUCCUAAGGAGAACAGGGCCCUACUCUACACAGCCCCAACAGAGGAUUGAGCAUCA
B18: 151805286_151807646_1166_CDS_ENSG00000178234_ENST00000430044|human|control|control (ssRNA)
RNA: GGGAGUUCUACAGUCCGACGAUCCAUGGCAAACAAACCUCCAGCCAUUGUUGGUGACUUUAUUGGUGCAGUGGCUCCCUCCGCUCGUCCUAGCUCAGAAAGGGGGACAAGAUCCCAUUUGAAGUGCAGUCCCCAGUUGAACCCCAACAGAGGAUUGAGCAUCA
B19: chr10:106022761:106022762:+_ENSG00000148834_ENST00000369713|hu_hu|motif|central (ssRNA)
RNA: GGGAGUUCUACAGUCCGACGAUCAAAUUCUUUACGAAAUUCUUCUUUUAGGCCAGCAUAGUCUUCUUUAUUUUGGCUUCGGAUAAAGCUUCCUACCAAGGAUGGCACCUUAGAAAACAACUCUAAGAUCAUCUUCUGGCAAGCCAACAGAGGAUUGAGCAUCA
B20: chr15:51794541:51794542:-_ENSMUSG00000022314_ENSMUST00000022927|mus_mus|motif|central (ssRNA)
RNA: GGGAGUUCUACAGUCCGACGAUCCAUGGAAGUCUUAGUUUUAAAACUGAUUUCCCCCCCAUAAAAGUGCCAACACUUAAGCGGGAACUUUUCAACAUAAUUUUGUCCUACAAAGUGAACAUGUUUUGAUAUUUAUAUAGUCACCAACAGAGGAUUGAGCAUCA
B21: chr4:46174136:46174137:+_ENSMUSG00000028330_ENSMUST00000030014|mus_hu|FALSE|FALSE (ssRNA)
RNA: GGGAGUUCUACAGUCCGACGAUCAUCUUCCCAGCUCCAACGGAACUGGAAGUUACUUAGAUGAUGAGAAAACCAAUUAAUAAACCUGUCUACACAGGUAGUGUUCAUUGUGUCCAAACGCAUGUAUAGCAUUUCAGUUGCCUGCAACAGAGGAUUGAGCAUCA
B22: chr5:37680062:37680063:+_ENSMUSG00000029121_ENSMUST00000031004|mus_hu|mus_mus_mus_hu_False|18_18 (ssRNA)
RNA: GGGAGUUCUACAGUCCGACGAUCUUUGGGUGUAGCUGGUACCUCGUACACAGGACCGUCAUACAUGCCCCUGGAAACCCCUUGCAAUCCAAAAACCUUAUUCCUGAUUUUGACGCGCUGGUAGAGAUGCUCCGGGAACGCCUUCAACAGAGGAUUGAGCAUCA

target: T1, UNK ZnF1-3; assay: nsRBNS (natural sequence RNA bind-n-seq); RBNS binding buffer (assumed for nsRBNS): 25 mM Tris pH 7.5, 150 mM KCl, 3 mM MgCl2, 0.01% Triton X-100, 500 ug/ml BSA, 20 U/ml SUPERase-In, 4 C; UNK is unkempt and MSI1 is Musashi-1; names of the RNAs are library labels; protein concentration not given here; high values mean tight binding

Compared with B1, B2 is lower in binding signal: 1.07 enrichment R for the first, 0.352 enrichment R for the second.

Compared with B3, B4 is lower in binding signal: 1.24 enrichment R for the first, 0.636 enrichment R for the second.

Going from B5 to B6, the binding signal falls from 2.09 enrichment R to 0.77 enrichment R.

Compared with B7, B8 is higher in binding signal: 0.769 enrichment R for the first, 0.94 enrichment R for the second.

Compared with B9, B10 is higher in binding signal: 0.652 enrichment R for the first, 1.13 enrichment R for the second.

Compared with B11, B12 is lower in binding signal: 2.05 enrichment R for the first, 1.09 enrichment R for the second.

First: B13
Second: B14
The binding signal of the first is higher: 1.24 enrichment R for the first, 0.673 enrichment R for the second.

Going from B15 to B16, the binding signal rises from 1.09 enrichment R to 1.13 enrichment R.

First: B17
Second: B18
The binding signal of the first is higher: 3.03 enrichment R for the first, 1.04 enrichment R for the second.

Going from B19 to B20, the binding signal falls from 0.857 enrichment R to 0.636 enrichment R.

Going from B21 to B22, the binding signal rises from 0.61 enrichment R to 0.828 enrichment R.
